Experimental data reported in the antibiotic and cytotoxicity screens of Wong et al. (2023).
The list shows a part of the results.

Each molecule was assayed on HSkMC (human skeletal muscle cells) (assay: cytotoxicity call (relative viability < 0.9)). Conditions: 10 µM.
For `C[C@@H]1CN([C@H](C)CO)C(=O)Cc2cc(NC(=O)Nc3ccccc3)ccc2O[C@H]1CN(C)S(=O)(=O)c1cn(C)cn1`, the cytotoxicity call was “inactive”. In the case of `C[C@@H]1CN([C@@H](C)CO)C(=O)Cc2cc(NC(=O)c3ccncc3)ccc2O[C@H]1CN(C)S(=O)(=O)c1cn(C)cn1`, the cytotoxicity call is reported as “inactive”. With `C[C@@H]1CN([C@@H](C)CO)C(=O)c2cc(C#CCN(C)C)cnc2O[C@H]1CN(C)S(=O)(=O)c1ccccc1` the cytotoxicity call was “inactive”. For `C[C@H]1CN([C@@H](C)CO)C(=O)Cc2cc(NC(=O)Nc3cccc4ccccc34)ccc2O[C@@H]1CN(C)C(=O)Nc1cccc2ccccc12`, the cytotoxicity call was “inactive”. With `O=C(/C=C/c1ccc(O)c(O)c1)O[C@H]([C@H](OC(=O)/C=C/c1ccc(O)c(O)c1)[C@H](OC(=O)/C=C/c1ccc(O)c(O)c1)C(=O)O)[C@@H](OC(=O)/C=C/c1ccc(O)c(O)c1)C(=O)O` the cytotoxicity call was “inactive”. In the case of `C[C@@H]1CN([C@@H](C)CO)C(=O)c2cc(NC(=O)Nc3ccc4c(c3)OCO4)ccc2O[C@@H](C)CCCCO[C@@H]1CN(C)C(=O)NC1CCCCC1`, the cytotoxicity call is reported as “inactive”. `C[C@@H]1CN([C@@H](C)CO)C(=O)c2cccc(NC(=O)Nc3ccc(C(F)(F)F)cc3)c2O[C@H]1CN(C)Cc1ccc(C(F)(F)F)cc1` was tested, and the cytotoxicity call was “inactive”. In the case of `CCS(=O)(=O)N1C[C@]2(CN(C2)S(=O)(=O)c2cn(cn2)C)c2c([nH]c3cc(ccc23)OC)[C@H]1CO`, the cytotoxicity call is reported as “inactive”. In the case of `C[C@H]1CN([C@@H](C)CO)C(=O)c2cccc(NC(=O)Nc3ccc(C(F)(F)F)cc3)c2O[C@@H]1CN(C)Cc1ccc(-c2ccccc2)cc1`, the cytotoxicity call is reported as “inactive”. In the case of `CS(=O)(=O)N1[C@@H]2c3ccc(-c4ccc(F)cc4)c(=O)n3C[C@@H]2[C@@H](CO)[C@@H]1C(=O)O`, the cytotoxicity call is reported as “inactive”. With `COc1ccc(S(=O)(=O)N2C[C@H](O)COC[C@H]3O[C@@H](CC(=O)NCc4ccc(Cl)c(Cl)c4)CC[C@@H]32)cc1` the cytotoxicity call was “inactive”. With `C[C@@H]1CCCCO[C@H](CN(C)C(=O)c2ccncc2)[C@H](C)CN([C@H](C)CO)C(=O)c2cc(NC(=O)NC3CCCCC3)ccc2O1` the cytotoxicity call was “inactive”. For `CC(C)NC(=O)Nc1ccc2c(c1)C(=O)N([C@H](C)CO)C[C@@H](C)[C@H](CN(C)Cc1ccc3c(c1)OCO3)O2`, the cytotoxicity call was “inactive”. For `COc1ccc(NC(=O)Nc2ccc3c(c2)C(=O)N([C@@H](C)CO)C[C@@H](C)[C@@H](CN(C)C(=O)Nc2ccc(F)cc2)OCCCC[C@@H](C)O3)cc1`, the cytotoxicity call was “inactive”. For `COc1ccc(NC(=O)N(C)C[C@H]2Oc3ccc(NC(=O)Nc4ccc(C(F)(F)F)cc4)cc3CC(=O)N([C@@H](C)CO)C[C@H]2C)cc1`, the cytotoxicity call was “inactive”. With `COc1cc2c(cc1OC)CN(C[C@H]1C[C@H](c3ccccc3)O[C@H](c3ccc(NC(=O)CCCCCCC(=O)NO)cc3)O1)CC2` the cytotoxicity call was “active”. For `C[C@@H]1CCCCO[C@H](CN(C)CC2CC2)[C@H](C)CN([C@H](C)CO)C(=O)c2cc(NC(=O)C3CCCCC3)ccc2O1`, the cytotoxicity call was “inactive”. `C[C@@H]1CN([C@H](C)CO)C(=O)c2cc(NC(=O)C3CCCCC3)ccc2O[C@@H](C)CCCCO[C@H]1CN(C)C(=O)CCC(F)(F)F` was tested, and the cytotoxicity call was “inactive”. For `C[C@H](CO)N1C[C@H](C)[C@H](CN(C)C(=O)Nc2cccc3ccccc23)Oc2c(NS(=O)(=O)c3cccs3)cccc2C1=O`, the cytotoxicity call was “inactive”. In the case of `C[C@H](CO)N1C[C@H](C)[C@H](CN(C)C(=O)Nc2ccc3c(c2)OCO3)Oc2c(NS(=O)(=O)c3cn(C)cn3)cccc2C1=O`, the cytotoxicity call is reported as “inactive”. `Cc1cc(C(=O)Nc2cccc3c2O[C@H](CN(C)S(=O)(=O)c2ccc(Cl)cc2)[C@@H](C)CN([C@H](C)CO)C3=O)n(C)n1` was tested, and the cytotoxicity call was “inactive”. For `C[C@H]1CN([C@@H](C)CO)C(=O)c2cccc(NC(=O)c3ccc(-c4nccs4)cc3)c2O[C@@H]1CN(C)C(=O)Nc1ccccc1`, the cytotoxicity call was “inactive”. For `C[C@@H]1CN([C@H](C)CO)C(=O)Cc2cc(NC(=O)CCCN(C)C)ccc2O[C@@H]1CN(C)S(=O)(=O)c1cccs1`, the cytotoxicity call was “inactive”. For `NC(=O)CSc1ccccn1`, the cytotoxicity call was “inactive”. For `COc1ccc(S(=O)(=O)N(C)C[C@@H]2Oc3ncc(C#CC4(O)CCCC4)cc3C(=O)N([C@H](C)CO)C[C@H]2C)cc1`, the cytotoxicity call was “inactive”. In the case of `COc1cccc(C#Cc2cnc3c(c2)C(=O)N([C@H](C)CO)C[C@@H](C)[C@@H](CN(C)C(=O)C2CCOCC2)O3)c1`, the cytotoxicity call is reported as “inactive”. In the case of `C[C@H](CO)N1C[C@H](C)[C@H](CN(C)Cc2ccncc2)Oc2ccc(NC(=O)Cn3cnnn3)cc2C1=O`, the cytotoxicity call is reported as “inactive”. For `COCC(=O)N1C[C@@H]2OCCN(CCN3CCCC3)[C@H]2C1`, the cytotoxicity call was “inactive”. For `COc1ccc(S(=O)(=O)N2C[C@@H](O)COC[C@H]3O[C@@H](CC(=O)NCc4ccc(Cl)c(Cl)c4)CC[C@@H]32)cc1`, the cytotoxicity call was “inactive”. With `C[C@]12C(=O)N(CCCCCO)[C@@H]3C(=O)N(c4ccc(Cl)cc4)CC=C[C@]31O[C@@H]1/C=C\CCCOC(=O)[C@H]12` the cytotoxicity call was “inactive”. In the case of `C[C@H](CO)N1C[C@H](C)[C@H](CN(C)S(=O)(=O)c2cn(C)cn2)OCCCC[C@H](C)Oc2ccc(NC(=O)Nc3cccc4ccccc34)cc2C1=O`, the cytotoxicity call is reported as “inactive”. `COc1ccc(S(=O)(=O)Nc2ccc3c(c2)CC(=O)N([C@@H](C)CO)C[C@@H](C)[C@H](CN(C)C)O3)cc1` was tested, and the cytotoxicity call was “inactive”. For `CCOC(=O)CC(=O)N1CCSC1COc1ccccc1OC` (stereo not given), the cytotoxicity call was “inactive”. `Cc1noc(C)c1NC(=O)N(C)C[C@@H]1Oc2c(NC(=O)Nc3cccc4ccccc34)cccc2C(=O)N([C@H](C)CO)C[C@H]1C` was tested, and the cytotoxicity call was “inactive”. In the case of `O=C(O)CCCNC(=O)c1ccccn1`, the cytotoxicity call is reported as “inactive”. With `C=CCN1C(=O)[C@]2(O[C@H](CCO)[C@@H]([Si](C)(C)c3ccc(OC)cc3)[C@@H]2C)c2cc(N(C=O)c3ccccc3)ccc21` the cytotoxicity call was “active”. For `Cc1ccc(S(=O)(=O)N(C)C[C@H]2Oc3c(NC(=O)c4cnccn4)cccc3C(=O)N([C@H](C)CO)C[C@@H]2C)cc1`, the cytotoxicity call was “inactive”. For `C[C@@H]1CCCCO[C@H](CN(C)C(=O)Nc2ccc(F)cc2)[C@H](C)CN([C@@H](C)CO)C(=O)c2cc(NC(=O)NC3CCCCC3)ccc2O1`, the cytotoxicity call was “inactive”. For `CC(C)NC(=O)N(C)C[C@H]1Oc2ccc(NS(=O)(=O)c3ccc(F)cc3)cc2CC(=O)N([C@H](C)CO)C[C@@H]1C`, the cytotoxicity call was “inactive”. `O=C1O[C@@H](c2ccccc2)[C@@H](c2ccccc2)N2[C@@H](c3ccc(O)cc3)[C@]3(C(=O)Nc4ccc(C#CCCO)cc43)[C@@H](C(=O)N3CCCCCCC3)[C@H]12` was tested, and the cytotoxicity call was “inactive”.
